The list shows a part of the results. Single values of this set are uncertain.
system: U2OS; assay: Cell Painting induction (percent of morphological features significantly changed vs DMSO); higher = stronger morphological change; conditions: 10 µM; 20 h; run: confirmation repeat
Protocol: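 Cell Painting assay in U2OS cells: compounds at 10 µM for 20 h, six dyes, 579 robust CellProfiler features as Z-scores vs DMSO median (MAD). Induction is the % of significantly changed features (active if ≥5%); relative cell count is in % of DMSO. The primary run holds DCM compounds preselected for induction ≥10%; the confirmation repeat defines active compounds (370 of 549). Replicate agreement is low, attributed to precipitation.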
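Also: stains mark DNA, RNA and nucleoli, ER, actin, Golgi, plasma membrane and mitochondria, read by high-content imaging, with DMSO controls at matching solvent concentration.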

SMILES	Cell Painting induction
CCCCCCNc1nc(OC)nc(N2CC3CC(C2)c2cccc(=O)n2C3)n1 (configuration not stated)	inactive: 1%
O=C1NC(=O)N(Cc2ccc(F)cc2)C(=O)/C1=C/Nc1ccc(Cl)cc1	inactive: 0%
CCOc1cc2c(cc1OCC)-n1cccc1C(c1cccc(F)c1F)NC2 (configuration not stated)	active: 25%
CCOC(=O)C(NC(=O)C(Cc1ccc(N(CCCl)CCCl)cc1)NC(C)=O)C(C)C (configuration not stated)	active: 21.9%
CCOC(=O)CNC(=O)CNC(=O)C(Cc1ccc(N(CCCl)CCCl)cc1)NC(C)=O (configuration not stated)	active: 11.4%
COc1ccc(-n2c(/C=C/c3cccc(F)c3)nc3ccccc3c2=O)c(OC)c1	inactive: 0.9%

same assay, conditions: 10 µM; 20 h; run: primary screen (compounds selected for induction >=10%)

SMILES	Cell Painting induction [%]
CCCCCCNc1nc(OC)nc(N2CC3CC(C2)c2cccc(=O)n2C3)n1 (configuration not stated)	11.6
O=C1NC(=O)N(Cc2ccc(F)cc2)C(=O)/C1=C/Nc1ccc(Cl)cc1	11.6
CCOc1cc2c(cc1OCC)-n1cccc1C(c1cccc(F)c1F)NC2 (configuration not stated)	21.4
CCOC(=O)C(NC(=O)C(Cc1ccc(N(CCCl)CCCl)cc1)NC(C)=O)C(C)C (configuration not stated)	28.8
CCOC(=O)CNC(=O)CNC(=O)C(Cc1ccc(N(CCCl)CCCl)cc1)NC(C)=O (configuration not stated)	22.8
COc1ccc(-n2c(/C=C/c3cccc(F)c3)nc3ccccc3c2=O)c(OC)c1	26.1

Reference: the supplement of paper PMC11181314
